# Experimental data taken from PubChem BioAssay AID624417 (National Center for Advancing Translational Sciences (NCATS), 2012).
# The whole screen tested about 410,000 compounds, of which about 6,400 (1.6%) were called active. This list was built around the results that the source calls inconclusive (neither active nor inactive); the mix of calls is not that of the screen. Calls come from the whole dose curve; as a rule, active = well fitted inhibition curve with a large enough effect; inconclusive = small, poorly fitted or top-dose-only effect; inactive = no such curve, though single readings can be large or run the other way. Potencies of inconclusive entries are left out as doubtful fits.
# Biological target: Glucagon-like peptide 1 receptor (Homo sapiens) (UniProt P43220)
# Sequence of UniProt P43220 (P43220 whole entry, looked up): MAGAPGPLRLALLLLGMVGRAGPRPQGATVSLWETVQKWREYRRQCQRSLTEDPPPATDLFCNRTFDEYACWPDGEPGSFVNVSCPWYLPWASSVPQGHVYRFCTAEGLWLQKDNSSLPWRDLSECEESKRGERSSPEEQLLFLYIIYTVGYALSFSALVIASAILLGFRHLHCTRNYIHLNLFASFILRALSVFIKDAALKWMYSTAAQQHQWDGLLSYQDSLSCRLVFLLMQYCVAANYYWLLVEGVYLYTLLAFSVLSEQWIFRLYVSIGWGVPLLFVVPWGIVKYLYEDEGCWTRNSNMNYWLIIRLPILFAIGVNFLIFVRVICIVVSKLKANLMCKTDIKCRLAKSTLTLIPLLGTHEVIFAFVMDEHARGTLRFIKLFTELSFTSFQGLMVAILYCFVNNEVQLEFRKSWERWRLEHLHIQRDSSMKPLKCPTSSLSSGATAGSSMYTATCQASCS
# Experiment: qHTS of GLP-1 Receptor Inverse Agonists (Inhibition Mode); note: nearly all actives have a fitted effect of over 55% in size
# Settings: HEK293 GLP-1R CRE-luciferase, luminescence, 24 h, GLP-1R form is constitutively active; activity change, negative = inhibition: at 38.3 µM (top of the series) unless noted
# How it was run: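 GLP-1R inverse agonism mode: basal reporter luminescence in engineered HEK293 cells measured after one day of compound exposure at 37 deg C, with a 12 min room-temperature detection step.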
# % is set by controls: 0 for no effect and ±100 for the full control effect; potency is the fitted concentration of half-maximal effect; tags give direction and shape of the fitted curve.
Compound,Potency,"activity change, negative = inhibition"
COCCN(Cc1nc(C(c2ccccc2)c2ccccc2)no1)C(C)C,"inconclusive [inhibitor, partial curve, poor fit]",–
COc1ccc(OC2(C)CCN(Cc3ccc(-c4ccccc4)o3)C2)cc1 (centres undefined),"inconclusive [inhibitor, partial curve, poor fit]",–
COc1ccccc1C1CC(=O)Oc2cc(C)c(Cl)c(C)c21 (centres undefined),"inconclusive [inhibitor, single point]",–
CCC1Oc2ccccc2C(=O)N(CC(=O)c2ccc3c(c2)OCCO3)C1=O (centres undefined),"inconclusive [inhibitor, partial curve, poor fit]",–
Cc1c(Br)cc(C(=O)NCc2ccco2)c(C)c1C,"inconclusive [inhibitor, single point]",–
COc1ccc2oc(C(=O)OCC(=O)N(Cc3ccccc3)C(C)(C)C)c(C)c2c1,"inconclusive [inhibitor, full curve]",–
COc1ccc(-c2nnc(SCC(=O)NCCc3ccc(OC)c(OC)c3)nc2-c2ccc(OC)cc2)cc1,–,inactive: 0.883%
CN(C)S(=O)(=O)c1cccc(NC(=S)NCCc2ccccn2)c1,–,inactive: 14.6%
O=C(Cc1cccc(Cl)c1)Nc1ccc(Br)cc1,"inconclusive [inhibitor, single point]",–
N#Cc1nc(-c2ccc(OCc3ccccc3)cc2)oc1NCCCN1CCOCC1,"inconclusive [inhibitor, single point]",–
Cc1ccc(-c2nnc(Nc3cccc(Cl)c3)c3ccccc23)cc1S(=O)(=O)N1CCCCC1,"inconclusive [inhibitor, partial curve, poor fit]",–
C(=Cc1nc2ccccc2o1)c1ccc2c(c1)OCO2,"inconclusive [inhibitor, full curve]",–
COc1ccc(F)cc1-c1cc(C(=O)NCc2cc(C(F)(F)F)cc(C(F)(F)F)c2)[nH]n1,"inconclusive [inhibitor, partial curve, poor fit]",–
Cn1cnc([N+](=O)[O-])c1Oc1cccc2ccccc12,"inconclusive [inhibitor, single point]",–
Cn1nc(C(C)(C)C)cc1C(=O)N1CCCCC1c1cc(C(=O)NCc2ccc(F)cc2)no1 (centres undefined),"inconclusive [inhibitor, partial curve]",–
COc1ccccc1-c1oc2ccccc2c1C#CC1(N)CCCCC1,"inconclusive [inhibitor, single point]",–
Cc1cccc(-n2c(SCC(=O)NCc3ccco3)nc3ccccc3c2=O)c1,"inconclusive [inhibitor, single point]",–
CC(=O)NS(=O)(=O)c1ccc(N=c2ssc3c2-c2cc(C)c(C)cc2NC3(C)C)cc1,"inconclusive [inhibitor, partial curve, poor fit]",–
O=C(COC(=O)c1c(F)cccc1F)Nc1cccc(S(=O)(=O)N2CCCCC2)c1,–,inactive: 3.73%
COc1ccc(C(C(=O)NC(C)(C)C)N(Cc2ccc(C)cc2)C(=O)CCC(=O)Nc2cc(C)on2)cc1 (centres undefined),"inconclusive [inhibitor, partial curve, poor fit]",–
COc1ccccc1N1CCN(c2cc(=O)n(Cc3ccc(F)cc3)c(=O)[nH]2)CC1,"inconclusive [inhibitor, full curve, poor fit]",–
COc1cc(CCC(=O)NCc2ccc3c(c2)CCN3C(=O)c2ccccc2)cc(OC)c1OC,–,inactive: -20.1%

Compound,Potency,"activity change, negative = inhibition"
O=C(Nc1nc2ccccc2[nH]1)c1cc(F)cc(F)c1,–,inactive: 0.733%
COc1ccc(NC(=S)N(Cc2ccc(Cl)cc2)Cc2ccc(C(=O)O)cc2)cc1Cl,"inconclusive [inhibitor, single point]",–
COC(=O)[C@@]12C[C@@H](CC(=O)NCCC(C)C)C(=O)N(Cc3cccc4ccccc34)C1=CCC(C)(C)C2,"inconclusive [inhibitor, single point]",–
O=C(Cc1ccc(Cl)c(Cl)c1)NC1CCCCCC1,"inconclusive [inhibitor, single point]",–
O=C(CCSc1nc(-c2ccco2)cc(C(F)(F)F)n1)NCCc1ccccc1,"inconclusive [inhibitor, single point]",–
CCC(c1nnnn1Cc1ccc2c(c1)OCO2)N1CCN(c2ccc(OC)cc2)CC1 (centres undefined),"inconclusive [inhibitor, single point]",–
Cc1ccc(-n2c(SCC(=O)N/N=C/c3ccc(C)s3)nnc2-c2ccccc2)cc1,"inconclusive [inhibitor, single point]",–
O=C(Nc1nc2c(s1)CCCC2)C1COc2ccccc2O1 (centres undefined),"inconclusive [inhibitor, single point]",–
O=C(Nc1ccc(S(=O)(=O)N2CCCC2)cc1)c1ccc(CN2CCc3ccccc3C2)cc1,"inconclusive [inhibitor, partial curve, poor fit]",–
Cc1ccc(C(c2sc3ncnn3c2O)N2CC(C)CC(C)C2)cc1 (centres undefined),"inconclusive [inhibitor, partial curve, poor fit]",–
COc1ccc(CCNC(=S)NC(=O)c2c(-c3ccccc3Cl)noc2C)cc1OC,"inconclusive [inhibitor, single point]",–
CCCOC(=O)c1ccc(NC(=O)c2cccc(S(=O)(=O)N3CCN(C(C)=O)CC3)c2)cc1,"inconclusive [inhibitor, single point]",–
CCN(C(=O)Cn1nnc2sc3c(c2c1=O)CCC(C(C)(C)C)C3)c1cccc(C)c1 (centres undefined),–,inactive: -0.581%
COC(=O)c1cc2oc3ccccc3c2n1Cc1nc(-c2ccc(Cl)cc2)oc1C,–,inactive: 3.48%
CCCCn1c(SCC(=O)c2ccccc2)nc2c(sc3ccccc32)c1=O,–,inactive: -11.4%
C(=C\n1nnc2ccccc21)/c1ccc[nH]1,–,inactive: 9.79%
OCCNCc1cccc(-c2ccccc2)c1O,"inconclusive [inhibitor, single point]",–
Cc1ccc(C)c(NC(=O)CN(C)C(=O)c2cccc(S(=O)(=O)N3CCN(Cc4ccccc4)CC3)c2)c1,"inconclusive [inhibitor, single point]",–
COCc1cc(C)nc(SCc2ccc(Br)cc2)c1C#N,"inconclusive [inhibitor, single point]",–
COc1ccc(C(=O)C2CCCN(Cc3sc(N4CCCC4)nc3Cl)C2)c(OC)c1 (centres undefined),"inconclusive [inhibitor, single point]",–
CCN(CCCNC(=O)C1CCC(=O)N1Cc1ccc(C)cc1)c1cccc(C)c1 (centres undefined),"inconclusive [inhibitor, single point]",–
COc1ccc(CNC(=O)Cn2c(=O)nc(-c3ccccc3)c3ccccc32)cc1OC,"inconclusive [inhibitor, full curve, poor fit]",–

Compound,Potency,"activity change, negative = inhibition"
C/C(=N\NC(=O)c1nnn(-c2nonc2N)c1CN1CCc2ccccc21)c1ccccc1O,"inconclusive [inhibitor, full curve, poor fit]",–
CC(C)C(C(=O)O)N1CCS(=O)(=O)CC1 (centres undefined),–,inactive: 1.97%
N#Cc1cnc(Nc2nc3ccccc3o2)nc1-c1ccccc1,"inconclusive [inhibitor, full curve, poor fit]",–
O=C(Nc1cccc(S(=O)(=O)N2CCOCC2)c1)C1CCCCN1S(=O)(=O)c1ccccc1 (centres undefined),"inconclusive [inhibitor, single point]",–
Cc1cccc(C)c1NC(=O)c1cccc2c1C(=O)N(C1CCCCC1)C2,"inconclusive [inhibitor, single point]",–
CC(C)NS(=O)(=O)c1cccc2nsnc12,–,inactive: -3.82%
O=C(N/N=C(/CC(=O)c1cccs1)C(F)(F)F)c1ccc(O)cc1,"inconclusive [inhibitor, single point]",–
CCCCNC(=O)c1ccc(NC(=O)C2CCCO2)cc1 (centres undefined),–,inactive: 1.66%
CC(=O)c1c(C)[nH]c(C(=O)Nc2ccc(C)c(S(=O)(=O)Nc3ccc(C)cc3C)c2)c1C,active: 2.51 µM,–
Cc1ccc(C(=O)C=CC=Cc2ccccc2)cc1,–,inactive: -7.57%
CCCN(CC1CC1)c1cc2c(c3c1ccn3C)C1CCC2O1 (centres undefined),"inconclusive [inhibitor, single point]",–
CC1CCc2nc3sc4c(c3c(N)c2C1)CCCC4 (centres undefined),"inconclusive [inhibitor, partial curve, poor fit]",–
O=C1N(c2cccc(Cl)c2)C(c2ccc(Cl)cc2)N2CCCN12 (centres undefined),"inconclusive [inhibitor, partial curve, poor fit]",–
Cc1c(NC(=O)c2ccc(-c3cccc([N+](=O)[O-])c3)o2)cccc1-c1nc2cc(Cl)ccc2o1,–,inactive: 17.9%
CCc1ccc(/C=C2/C(=O)N(c3ccccc3)C(=S)N2CC(=O)OC)s1,"inconclusive [inhibitor, single point]",–
CCC(CC)C(=O)N1CC(=O)Nc2ccc(F)cc2C1c1ccccc1 (centres undefined),"inconclusive [inhibitor, single point]",–
CN1CCN(CCCCOc2ccccc2C=O)CC1,"inconclusive [inhibitor, partial curve, poor fit]",–
C#CC[N+](C)(C)CCCCCCCCCCCC,"inconclusive [inhibitor, full curve, poor fit]",–
CC1Cc2ccccc2N1C(=S)NC(=O)c1cccc(Br)c1 (centres undefined),"inconclusive [inhibitor, single point]",–
COc1ccc(-c2nc(C)c(CCNS(=O)(=O)c3cc(Cl)ccc3Cl)s2)cc1,"inconclusive [inhibitor, single point]",–
